According to PubChem BioAssay AID652104 (National Center for Advancing Translational Sciences (NCATS), 2013):
The campaign covered roughly 410,000 compounds. About 7,200 (1.8%) were called active. Inconclusive results, whose numbers are uncertain, are shown with a selection of clear calls. Calls follow the shape of the dose curve; as a rule, active = well fitted activation curve with a large enough effect; inconclusive = small, poorly fitted or top-dose-only effect, or another doubt; inactive = no such curve, though single readings can be large or run the other way. Potencies of inconclusive entries are left out as doubtful fits.

experiment: qHTS of TDP-43 Inhibitors; settings: TDP-43 expressing yeast growth rescue, BacTiter-Glo, 24 h; growth rescue (activation): at 46.1 µM (top of the series) unless noted; also: nearly all actives have a fitted effect of over 50% in size; as to growth rescue (activation): % of control where 0% means no effect
Method in brief: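 Yeast expressing TDP-43 (pregrown in raffinose, seeded at OD600=0.02 in galactose medium) exposed to compounds 24 hr at 30 deg C. Growth read by BacTiter-Glo luminescence; rescue of toxicity appears as increased signal.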
Potency is read from the fitted curve at half-maximal effect; tags tell the direction and shape of the fitted curve.

Question: For `Cc1ccc(S(=O)(=O)c2nc(Nc3ccccc3)sc2Cl)cc1`, which Potency is on record?
Answer: inconclusive [activator, single point]

Question: Which Potency does the source give for `CCC(C)Cn1c(/C=C/c2ccccc2)nc2ccccc21` (stereo not given) here?
Answer: active: 14.1 µM

Question: For `COc1ccc(CN(C)C(=O)c2ccc(NS(=O)(=O)c3ccc4[nH]c(=O)[nH]c4c3)cc2)c(OC)c1OC`, which Potency is on record?
Answer: inconclusive [activator, full curve, poor fit]

Question: For `O=C(Cc1ccc(-c2ccccc2)cc1)Nc1ccccc1`, which Potency is on record?
Answer: inconclusive [activator, full curve]

Question: With `O=C(NCCCCc1ccccc1)c1cccc(NC(=O)c2ccccc2)c1` as the compound, how does the Potency read?
Answer: inconclusive [activator, single point]

Question: Which Potency does the source give for `O=C(CS(=O)(=O)Cc1ccccc1)N1CCN(c2cccc(C(F)(F)F)c2)CC1` here?
Answer: inconclusive [activator, single point]

Question: Which Potency does the source give for `CCS(=O)(=O)c1ccc(O)c(Nc2cc(C)nc(SC)n2)c1` here?
Answer: inconclusive [activator, partial curve, poor fit]

Question: For `Cc1ccc(C)c(-n2c3nc(=O)[nH]c(=O)c-3cc3c(C)nn(-c4ccccc4)c32)c1`, which Potency is on record?
Answer: inactive

Question: For `COc1ccc(S(=O)(=O)NC2CCCC2)cc1Cl`, which Potency is on record?
Answer: inconclusive [activator, partial curve]

Question: With `Cc1ccc(NC(=S)NC(=O)C2CCCC2)cc1C` as the compound, how does the Potency read?
Answer: inactive

Question: For `Fc1ccc2c(c1)C(c1ccc(N3CCOCC3)cc1)=NNC(c1cccs1)=N2`, which Potency is on record?
Answer: inconclusive [activator, single point]

Question: With `Cc1nc2ccccc2c(=O)n1NC(=O)c1cccc(Cl)c1` as the compound, how does the Potency read?
Answer: inconclusive [activator, single point]

Question: Which Potency does the source give for `Cc1ccc(Nc2ncc(C(=O)N3CCN(c4ccc(F)cc4)CC3)c3ccccc23)cc1Cl` here?
Answer: active: 12.6 µM

Question: With `CCC(C)c1ccc(NC(=O)C2CCCN(c3ncccn3)C2)cc1` (stereo not given) as the compound, how does the Potency read?
Answer: active: 12.6 µM

Question: Which Potency does the source give for `CCOc1ccc(NC(=O)c2cccc3c2C(=O)N(CC2CCCO2)C3)cc1` (stereo not given) here?
Answer: inconclusive [activator, partial curve]

Question: For `Cc1ccsc1CN(C(=O)c1oc2ccc(F)cc2c1C)C1CCS(=O)(=O)C1` (stereo not given), which Potency is on record?
Answer: inconclusive [activator, partial curve, poor fit]

Question: Which Potency does the source give for `CCOc1ccccc1NC(=O)N(Cc1ccc(F)cc1)C1CCN(CC)CC1` here?
Answer: inactive

Question: Which growth rescue (activation) does the source give for `Cc1ccc(C(=O)O/N=C(\N)Cc2cccs2)cc1[N+](=O)[O-]` here?
Answer: inconclusive: -82.6% [activator]

Question: With `Nc1ccc2c3c(cccc13)C(=O)N(c1ccccc1)C2=O` as the compound, how does the Potency read?
Answer: inactive

Question: For `Cc1csc(N/N=C/c2ccccc2F)n1`, which Potency is on record?
Answer: inconclusive [activator, single point]

Question: For `Cc1cccc(CCNc2ncnc3onc(-c4ccc(Cl)cc4)c23)c1`, which Potency is on record?
Answer: active: 35.5 µM

Question: For `Nc1ccc2nc(SCc3ccc([N+](=O)[O-])cc3)sc2c1`, which Potency is on record?
Answer: inconclusive [activator, single point]

Question: With `CCOC(=O)N1CCN(C(=O)C[C@@H]2C[C@@]3(C(=O)OCC)CCCC=C3N(Cc3ccc(Cl)cc3Cl)C2=O)CC1` as the compound, how does the Potency read?
Answer: inconclusive [activator, partial curve]

Question: Which Potency does the source give for `O=c1c2ccccc2nc(/C=C/c2ccccc2)n1CCCO` here?
Answer: inconclusive [activator, partial curve]

Question: Which Potency does the source give for `Cc1nc(NCc2ccco2)c2oc3ccccc3c2n1` here?
Answer: inactive

Question: With `COc1ccc(-n2ncc(C(=O)N3CCN(c4ccc(F)cc4)CC3)c2C)cc1` as the compound, how does the Potency read?
Answer: inconclusive [activator, partial curve]

Question: For `CCOC(=O)c1ccc(N2C(=O)c3n[nH]c(C)c3C2c2ccccc2OC)cc1` (stereo not given), which Potency is on record?
Answer: inconclusive [activator, full curve, poor fit]

Question: For `N#Cc1ccc(C(=O)NCc2ccc3c(c2)CCN3C(=O)c2ccc(F)cc2)cc1`, which Potency is on record?
Answer: inconclusive [activator, partial curve]

Question: With `C(CCc1nn[nH]n1)CCC1CCCCC1` as the compound, how does the Potency read?
Answer: inconclusive [activator, single point]

Question: For `COC(=O)c1ccc(C2c3c(oc4ccccc4c3=O)C(=O)N2c2nc(C)c(C(=O)OC)s2)cc1` (stereo not given), which Potency is on record?
Answer: inconclusive [activator, partial curve, poor fit]

Question: With `COC(=O)c1c(NC(=O)Cn2cnc([N+](=O)[O-])n2)sc2c1CCC(C)C2` (stereo not given) as the compound, how does the Potency read?
Answer: inconclusive [activator, partial curve, poor fit]

Question: With `O=S1(=O)N=C(N/N=C/c2ccccn2)c2ccccc21` as the compound, how does the Potency read?
Answer: inconclusive [activator, partial curve, poor fit]

Question: With `Cc1ccc(S(=O)(=O)NC(=O)C2(C)CCN2C(=O)C2(c3ccc(Cl)cc3)CCC2)cc1` (stereo not given) as the compound, how does the Potency read?
Answer: inconclusive [activator, single point]

Question: For `COc1ccc(N(C(=O)c2snc(C(N)=O)c2N)C(C(=O)NCc2ccccc2)c2ccc(O)cc2)cc1OC` (stereo not given), which Potency is on record?
Answer: inactive

Question: Which Potency does the source give for `CN1C=CC=C/C1=C1\SC(=S)N(C2CCCCC2)C1=O` here?
Answer: inconclusive [activator, single point]

Question: Which Potency does the source give for `Cc1cc2cc(CCNC(=O)c3ccc(Br)o3)c(=O)[nH]c2cc1C` here?
Answer: inconclusive [activator, single point]

Question: Which Potency does the source give for `CCOc1ccc(C(=O)NCCc2sc(-c3ccc(OC)c(OC)c3)nc2C)cc1` here?
Answer: active: 15.8 µM

Question: For `CC(C)(C)Cc1c(-c2cccc(Cl)c2)nc2ccc(Cl)cn12`, which Potency is on record?
Answer: inactive

Question: For `COc1ccc(S(=O)(=O)N2CCC(c3nnnn3-c3ccccc3)CC2)cc1OC`, which Potency is on record?
Answer: inactive

Question: With `CCC(C(=O)NC1CCCCC1)n1nc(C)c2sc3ccccc3c2c1=O` (stereo not given) as the compound, how does the Potency read?
Answer: inconclusive [activator, full curve, poor fit]

Question: For `Cc1ccc(-n2c(=S)[nH]c3c(oc4ccccc43)c2=O)cc1C`, which Potency is on record?
Answer: inconclusive [activator, partial curve]

Question: With `Cc1cc(C)c(NC(=O)c2ccc3nc(C(C)C)oc3c2)c(C)c1` as the compound, how does the Potency read?
Answer: inconclusive [activator, partial curve]

Question: For `CCOCCn1c(=NC(=O)c2ccc3c(c2)OCCO3)sc2cc(OCC)ccc21`, which Potency is on record?
Answer: inconclusive [activator, partial curve]

Question: For `COc1ccc(NC(=S)NCCSc2ccc(Cl)cc2)c(OC)c1`, which Potency is on record?
Answer: inconclusive [activator, single point]

Question: For `O=C(O)c1ccc(Oc2ccc(C(F)(F)F)cn2)cc1`, which growth rescue (activation) is on record?
Answer: inconclusive: 59.6% [activator]

Question: With `CCCCn1c(C2CC(=O)N(c3ccc(OCC)cc3)C2)nc2ccccc21` (stereo not given) as the compound, how does the Potency read?
Answer: inactive

Question: Which Potency does the source give for `Cc1nn(-c2ccccc2)c2nc(-c3ccccc3)cc(C(=O)N3CCOCC3)c12` here?
Answer: inconclusive [activator, single point]

Question: For `Cc1ccc(/C=C/C(=O)N2CC(C)CC(C)C2)o1` (stereo not given), which Potency is on record?
Answer: active: 25.1 µM

Question: Which Potency does the source give for `CCCCCOc1ccc(C2C(C(C)=O)=C(C)Nc3ncnn32)cc1OC` (stereo not given) here?
Answer: inactive

Question: For `Cn1ccc2c(OCC(=O)NCc3ccc(F)cc3)cccc2c1=O`, which Potency is on record?
Answer: inconclusive [activator, partial curve]

Question: For `c1ccc2c(-c3csc(-c4ccncc4)n3)c[nH]c2c1`, which Potency is on record?
Answer: active: 3.98 µM

Question: Which Potency does the source give for `O=C(Nc1ccc2nc3n(c(=O)c2c1)CCCCC3)c1ccccc1Cl` here?
Answer: inconclusive [activator, partial curve]

Question: For `COc1ccccc1Nc1ncccc1[N+](=O)[O-]`, which Potency is on record?
Answer: inactive

Question: For `CSc1ccccc1NC(=O)CN(C)S(=O)(=O)c1ccc(F)cc1`, which Potency is on record?
Answer: inconclusive [activator, partial curve]

Question: Which Potency does the source give for `CCc1noc(C)c1C(=O)N1CCN(S(=O)(=O)c2ccccc2C(F)(F)F)CC1` here?
Answer: inactive

Question: For `O=C(C[n+]1cccc(Br)c1)c1ccccc1`, which Potency is on record?
Answer: inactive

Question: Which Potency does the source give for `O=C(N/N=C/C(Br)=C\c1ccccc1)c1n[nH]c2c1CCC2` here?
Answer: inconclusive [activator, single point]

Question: For `Cc1ccccc1-n1c(C)cc(/C=N/NC(=O)c2ccncc2)c1C`, which Potency is on record?
Answer: inactive

Question: With `CCCCSc1ccc2nc(-c3ccc(C#N)cc3)cn2c1` as the compound, how does the Potency read?
Answer: active: 11.2 µM

Question: For `Nc1c(C(=O)O)sc2nc(-c3ccccc3)c3c(c12)CCCC3`, which Potency is on record?
Answer: inconclusive [activator, partial curve]

Question: Which Potency does the source give for `Cc1nn(C(C)C(=O)Nc2cccc(F)c2)c(=O)c2c1sc1ccccc12` (stereo not given) here?
Answer: inactive

Question: For `Cc1ccc(CNc2ccccc2C(=O)O)s1`, which Potency is on record?
Answer: inconclusive [activator, single point]

Question: Which Potency does the source give for `O=C(CSc1nnc(COc2ccc(Cl)cc2)o1)OC1CCCCC1` here?
Answer: inconclusive [activator, full curve]

Question: With `O=C(C1=C(O)/C(=C/c2ccc(O)cc2)CCC1)C(F)(F)F` as the compound, how does the Potency read?
Answer: active: 22.4 µM

Question: Which Potency does the source give for `O=C(COc1ccccc1Cl)Nc1ccc2c(c1)OCCO2` here?
Answer: inconclusive [activator, single point]

Question: With `BrC(=C\c1ccccc1)/C=N/n1cnnc1` as the compound, how does the Potency read?
Answer: inconclusive [activator, single point]

Question: Which Potency does the source give for `CC[C@@]1(c2ccccc2OC)C(=O)N(C(=O)OC)N1C(=O)OC` here?
Answer: inactive

Question: For `NC(c1ccc(F)c(F)c1)c1nc(-c2cncnc2)cs1` (stereo not given), which Potency is on record?
Answer: inconclusive [activator, full curve, poor fit]

Question: For `O=C(c1ccc(-c2ccccc2)cc1)N1CCN(c2nc3ccccc3o2)CC1`, which Potency is on record?
Answer: inconclusive [activator, full curve, poor fit]

Question: Which Potency does the source give for `O=C(CSc1ccc(Cl)cc1)Nc1cccc(-c2nc3ncccc3o2)c1` here?
Answer: inconclusive [activator, partial curve, poor fit]
